Reference: ChEMBL document CHEMBL1201862, “PubChem BioAssay data set” (2004)
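Results reflect a 48-hour exposure of cells in 96-well plates to compound at five concentrations. GI50 = concentration required for 50% inhibition of growth.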 Active and inactive are the calls of the source. Cut-off read from the data, not from the text of the source: active = GI50 up to about 1.1 µM and inactive = higher.

test system: NCI-H322M; experiment: NCI tumour cell line growth inhibition, 48 h

Structure (SMILES)	GI50
c1ccc(C(=NCCC2CNc3ccccc32)c2ccccc2)cc1 (centres undefined)	inactive: > 100 µM
CC(O)C(CO)NC(=O)C1CSSCC(NC(=O)C(N)Cc2ccccc2)C(=O)NC(Cc2ccccc2)C(=O)NC(Cc2c[nH]c3ccccc23)C(=O)NC(CCCCN)C(=O)NC(C(C)O)C(=O)N1 (centres undefined)	inactive: > 100 µM
COc1ccc(OC)c2c1C(=O)C(Cl)=C(Cl)C2=O	inactive: 24.9 µM
Cc1ccc(N/C(SCc2ccccc2)=C(\C(Cl)=C(Cl)Cl)[N+](=O)[O-])c(C)c1	inactive: 45.3 µM
CCCC(CC)c1c(O)c(O)c(C(CC)CCC)c(C(CC)CCC)c1C(CC)CCC (centres undefined)	inactive: > 10 µM
Cc1cc(S(=O)(=O)Nc2nc(N)n(C)n2)c(S)cc1Cl	inactive: > 10 µM
S=c1nc(Nc2ccc(Cl)cc2)c2c3c(sc2[nH]1)CCCC3	inactive: > 100 µM
Fc1cccc(Cl)c1C1SCc2nc3cc4ccccc4cc3n21 (centres undefined)	inactive: > 100 µM
C=CCn1c(-c2ccccc2)cs/c1=N\C(P(=O)(O)O)P(=O)(O)O	inactive: > 100 µM
CCCCCNc1nonc1N	inactive: > 100 µM
COc1ccc2c(=O)c(O)c(-c3ccc(OC)c(OC)c3)oc2c1	inactive: 6.11 µM
O=C(Nc1nc(C23CC4CC(CC(C4)C2)C3)cs1)c1cc2cc(Br)cc(Br)c2oc1=O	inactive: > 100 µM
CCOC(=O)C1=[N+]([O-])OC2=C(O)CCCC21 (centres undefined)	inactive: > 100 µM
COc1cc(/C=C2\N=C(c3ccccc3)N(c3nc4cc(C)c(C)cc4s3)C2=O)ccc1O	inactive: 52 µM
O=C(c1ccccc1)[C@H]1Nc2ccc(Cl)cc2C2c3ccccc3CC21 (some centres undefined)	inactive: 45.6 µM
O=C(COC(=O)c1cccc2c(=O)c3ccccc3[nH]c12)Nc1ccc(Cl)cc1	inactive: 95.7 µM
O=c1[nH]n(Cc2ccccc2Cl)c2ccccc12	inactive: > 100 µM
CC(=O)O[C@H]1CSC[C@@H](OC(C)=O)C1[N+](=O)[O-] (some centres undefined)	inactive: > 100 µM
C=CCC1(CN(C)C)CC/C(=C\c2ccc3c(c2)OCO3)C1=O (centres undefined)	inactive: > 100 µM
COCNC(=NC#N)NCOC	inactive: > 100 µM
O=C1CN2Cc3cc(N4CCOCC4)ccc3N=C2N1	inactive: 61.9 µM
C=CCc1cc2cccc(OC)c2oc1=O	inactive: > 100 µM
BrCCC[P+](c1ccccc1)(c1ccccc1)c1ccccc1	inactive: 73.6 µM
CCOC(=O)C(C)(C)Oc1ccc(Cl)cc1 [CLOFIBRATE]	inactive: > 1000 µM

Structure (SMILES)	GI50
COC(=O)NCCc1n[nH]c2c1C(=O)C=C(Nc1ccccc1)C2=O	inactive: 32.1 µM
CNC(=O)C(C)NC(=O)C(Cc1ccccc1)NC(=O)OC(C)(C)C (centres undefined)	inactive: > 100 µM
Cc1ccc(S(=O)(=O)CNC(=S)CCCC(=S)NCS(=O)(=O)c2ccc(C)cc2)cc1	inactive: > 100 µM
COc1cc(OC)c2c(c1)OC(c1cccnc1)C(c1ccccc1)C2=O (centres undefined)	inactive: > 100 µM
O/N=C1/C(=C/c2ccc3c(c2)OCO3)CCCC1C(NO)c1ccc2c(c1)OCO2 (centres undefined)	inactive: 24.5 µM
COc1ccc(C(=O)Nc2ccccc2C#N)cc1	inactive: > 100 µM
NC(CCC(=O)O)C(=O)N1CCN(c2nc(N3CCCC3)c3nc(Cl)c(NCc4ccccc4)nc3n2)CC1 (centres undefined)	inactive: 15.8 µM
O=C1CSC(/C=C/c2ccccc2)N1c1ccc(-c2ccc(-n3c(-c4ccccc4)nc4ccccc4c3=O)cc2)cc1 (centres undefined)	inactive: 50.5 µM
C=C(C)CC(C(=O)O)c1ccc(C)cc1 (centres undefined)	inactive: > 100 µM
CCN(CC)CCNc1ccc2ncn3c4c(OC)cccc4c(=O)c1c23	inactive: 4.47 µM
O=C(CSSCC(=O)OCCS(=O)(=O)Nc1ccc(Br)cc1)OCCS(=O)(=O)Nc1ccc(Br)cc1	inactive: 31.4 µM
COC(=O)c1c(C(=O)OC)c2cc(C(=O)c3ccccc3)ccn2c1Cl	inactive: > 100 µM
CCOC(=O)c1[nH]cc(C)c1-c1ccn(-c2ccccc2)c1	inactive: > 100 µM
COc1ccc2[nH]c3c(C)c4cc[n+](C)cc4c(C)c3c2c1	active: 0.519 µM
Cc1ccccc1C(=O)Oc1ccc(O)cc1	inactive: > 100 µM
C#CCCCCC#Cc1ccccc1C(=O)C=[N+]=[N-]	inactive: > 100 µM
COc1c(NC(C)=O)cc(C)cc1NC(C)=O	inactive: > 100 µM
COc1cc2oc(=O)cc(C)c2cc1OC	inactive: > 100 µM
CCc1nn(CN2CCOCC2)c(=S)n1/N=C/c1ccc(-c2ccc(Cl)cc2)o1	inactive: > 100 µM
Cc1ccc2c(c1)C=CC1(O2)N(c2ccccc2)C(=S)OC1(C)C (centres undefined)	inactive: > 100 µM
CC(=O)N1C(C(=O)NC2CCCCC2)CSC1c1ccccc1 (centres undefined)	inactive: > 100 µM
O=C(O)C1CCN(Cc2oc(CO)cc(=O)c2O)C1 (centres undefined)	inactive: 63.2 µM
C=C1C(=O)O[C@H]2C[C@@]3(C)[C@H](O)CCC(=C)[C@@H]3[C@@H](OC(C)=O)[C@H]12	inactive: 17.5 µM
C[C@H]1CC(=O)[C@@]2(O)C#C/C=C\C#C[C@@H]3Nc4c(cc(O)c5c4C(=O)c4ccccc4C5=O)[C@]24O[C@]314	active: 0.139 µM

Structure (SMILES)	GI50
S=C(S)NCNC(=S)S	inactive: > 100 µM
C/C=C1/CN2CCC34C(=C(C(=O)OC)C1CC23)Nc1ccc(O)cc14 (centres undefined)	inactive: > 100 µM
C1=C2C3=[N+](CCCC3)CC2Cc2sccc21 (centres undefined)	inactive: > 100 µM
O=C(c1ccc(Cl)c(Cl)c1)N(C(=S)OC12CC3CC(CC(C3)C1)C2)c1ccccc1	inactive: 40.2 µM
CN(C)CC1=Nc2cccc3cccc(c23)N1	inactive: > 100 µM
COc1cc2c(c(OC)c1OC)-c1ccc(SC)c(=O)cc1[C@@H](NC(=O)c1ccc(Cl)cc1)CC2	active: < 0.01 µM
O=c1cc(N2CCCC2)[nH]c(=O)n1-c1ccc(Cl)cc1	inactive: > 100 µM
Cc1cccc(CP(Cc2cccc(C)c2)CC2(Cp3c4ccccc4c4ccccc43)COC2)c1	inactive: > 100 µM
COC(=O)C1=C(C)NC(=S)NC1c1ccc(N(CCCl)CCCl)cc1Cl (centres undefined)	inactive: 34.5 µM
CCn1c2ccc(O)c(C(=O)OC)c2c2cc3ccccc3c(O)c21	inactive: 15.5 µM
Nc1ccc(-c2nc3ccccc3s2)cc1C(F)(F)F	inactive: 15.5 µM
O=C(OCc1ccccc1CN1CCOCC1)c1ccc(Br)cc1	inactive: > 100 µM
COc1cc(COC(=O)N(CC(=O)O)c2ccccc2)c([N+](=O)[O-])cc1OC	inactive: > 100 µM
COc1ccc(C2OC(=O)c3ccc4ccccc4c32)c(C)c1 (centres undefined)	inactive: 24.5 µM
CNC(=O)ON(C(C)=O)C(=O)NC [CARACEMIDE]	inactive: 110 µM
Cc1c2ccncc2c(C)c2c1[nH]c1ccc(OC(C)C)cc12	inactive: 1.28 µM
COC(=O)C1C(O)C(C(=O)OC)C(C)N(C)C1C (centres undefined)	inactive: > 100 µM
COc1ccc(CSCc2cc(OC)c(OC)c(OC)c2)cc1	inactive: > 100 µM
Cc1ccc2ccc3ccc(C)nc3c2n1 [NEOCUPROINE]	inactive: 1.96 µM
COc1ccc2c(c1)CC[C@@H]1[C@@H]2CC[C@]2(C)C(=O)/C(=C/c3ccc(OC)c(OC)c3)C[C@@H]12	inactive: > 100 µM
Cn1cnc([N+](=O)[O-])c1Sc1nccn1-c1ccccc1	inactive: 77.3 µM
C=C(Br)CN(CC(=C)Br)C(C)=O	inactive: > 100 µM
Nc1nc2[nH]cnc2c(=S)[nH]1 [THIOGUANINE]	inactive: 9.2 µM
CCCCCCCCCCCCOCCCOP(=O)([O-])OCC[N+](C)(C)C	inactive: 80.2 µM

Structure (SMILES)	GI50
Clc1ccc(-c2cn3c(nc4ccccc43)c(-c3ccccc3)n2)cc1	inactive: 22.2 µM
COC(=O)[C@H]1NC(=O)CCSSC1(C)C	inactive: > 100 µM
CC(C)(C)OC(=O)C1=C(C(=O)OC(C)(C)C)SC2(S1)C(C(=O)OC(C)(C)C)=C(C(=O)OC(C)(C)C)Sc1c2ssc1=O	inactive: > 100 µM
Cc1nc(-n2[nH]c(C)c(CCO)c2=O)[nH]c(=O)c1CCO	inactive: > 100 µM
O/N=C1/C(=C/c2ccc(Cl)cc2)CCCC1C(NO)c1ccc(Cl)cc1 (centres undefined)	inactive: 15.4 µM
CCOC(=O)c1c(O)nc2cccc3c2c1-c1cccnc1S3	inactive: 36.5 µM
Nc1nc(O)c2[nH]nnc2n1 [8-AZAGUANINE]	inactive: 20.9 µM
O=S(=O)(N/N=C\c1c2ccccc2[n+]([O-])c2ccccc12)c1ccc(Cl)cc1	inactive: > 100 µM
CC(C)C1CN(C(=O)OCc2ccccc2)C2N1C(=O)C2(C)OCc1ccccc1 (centres undefined)	inactive: 99.5 µM
Cc1nc(N)c(N2CCN(C(=O)O)CC2)c(O)n1	inactive: > 100 µM
O=C1Cc2c(-c3ccccc3)cc(-c3ccc4ccccc4c3)nc2-c2ccccc2N1	inactive: 10.4 µM
COc1ccc(C2=Nc3ccccc3SC(C)C2)cc1 (centres undefined)	inactive: > 100 µM
C/C(=N\Nc1nc2ccccc2n1C)c1cc2ccccc2cn1	active: < 0.0323 µM
CN(C)Cc1cc(/N=N/c2ccc(Cl)c(Cl)c2)ccc1O	inactive: 11.7 µM
CC(C)=CC(=O)C[C@H]1C(=O)O[C@@H]2C[C@H]3C(C)=CC(=O)[C@@H](O)[C@]3(C)[C@H]3[C@@]4(O)OC[C@]32[C@@H]1[C@@H](C)[C@H]4O	active: 0.406 µM
CC(C)(CN)SCc1ccccc1	inactive: > 100 µM
Oc1ccc(-c2nc(-c3cccnc3)c(-c3ccc(F)cc3)[nH]2)cc1	inactive: 21.5 µM
O=C(/C=C\c1cccc2ccccc12)c1cccc2ccccc12	inactive: 3.15 µM
Cc1nc2c(n1CC(C)C)C(=O)c1ccccc1C2=O	inactive: 37.2 µM
CC(C)(C)OC(=O)CN1CCN(CC(=O)N2CCN(C(=O)OCc3ccccc3)CC2)CCN(CC(=O)OC(C)(C)C)CCN(CC(=O)N2CCN(C(=O)OCc3ccccc3)CC2)CC1	inactive: 14.9 µM
CC(=O)Oc1c(C)c2c(O)c3c1C1=C(OCOC1=C(C)C3=O)/C(C)=C/C(C)(O)C(O)C(C)C(O)C1C(=O)OC(C(C)C1O)C(C)(O)/C=C\C=C(C)C(=O)N2 (centres undefined)	inactive: 50 µM
Cc1cc(NS(=O)(=O)c2ccc(Nc3c4ccccc4nc4c(C(=O)NC(CO)(CO)CO)cccc34)cc2)no1	inactive: 34 µM
